This note sets out measurements from PMC5436228.

Common to all, as to assay: co-IP; HEK293TN cells double transfected; 250 μg lysate (NP-40 lysis buffer) incubated 30 min at room temperature with protein G-Dynabeads bound to rabbit anti-GFP; blots with anti-FLAG M2, anti-GFP (JL-8) or anti-RIM1/2
Assay [1] has as its target Munc13-1 (E128K, E137K) fused C terminally with GFP (rat) (UniProt Q62768).
The target of assay [2] is Munc13-1 (K32E) fused C terminally with GFP (rat) (UniProt Q62768).
In assay [3] the target is Munc13-1 WT fused C terminally with GFP (rat) (UniProt Q62768).
In assay [4] the target is Munc13-1 (K32E, E128K, E137K) fused C terminally with GFP (rat) (UniProt Q62768).

No constants are given. Whether binding was seen depends on the method and setting. In cells and extracts the contact can be indirect. Some entries that bind do so weakly or less than the wild type.

With “full-length RIM-1α fused C terminally to a red fluorescent protein (RFP) (from UniProt Q9JIR4 1-1615)”, the binding result in assay [1], in assay [2], in assay [3] and in assay [4] was “binds” each time.

Regarding “Munc13-1 with 3xFLAG fused to the C terminus (from UniProt Q62768 1-1735)”, the binding result is on record as “binds” in assay [1], “no binding” in assay [2], “binds” in assay [3] and “no binding” in assay [4].
